Source: paper PMC4336329 (PLoS ONE, 2015)
The campaign covered roughly 310,000 compounds. About 14,000 (4.5%) showed an effect of 50% or more. Effects have a minus sign here. The list shows a part of the results.

Target: human ether-à-go-go-related gene (hERG) potassium channel (human, UniProt Q12809)
Experiment: primary screen, population patch clamp on CHO cells stably expressing hERG
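Further: peak tail current of the secondary pulse compared with the same well before compound.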

Sequence of human ether-à-go-go-related gene (hERG) potassium channel (Q12809 whole entry, looked up): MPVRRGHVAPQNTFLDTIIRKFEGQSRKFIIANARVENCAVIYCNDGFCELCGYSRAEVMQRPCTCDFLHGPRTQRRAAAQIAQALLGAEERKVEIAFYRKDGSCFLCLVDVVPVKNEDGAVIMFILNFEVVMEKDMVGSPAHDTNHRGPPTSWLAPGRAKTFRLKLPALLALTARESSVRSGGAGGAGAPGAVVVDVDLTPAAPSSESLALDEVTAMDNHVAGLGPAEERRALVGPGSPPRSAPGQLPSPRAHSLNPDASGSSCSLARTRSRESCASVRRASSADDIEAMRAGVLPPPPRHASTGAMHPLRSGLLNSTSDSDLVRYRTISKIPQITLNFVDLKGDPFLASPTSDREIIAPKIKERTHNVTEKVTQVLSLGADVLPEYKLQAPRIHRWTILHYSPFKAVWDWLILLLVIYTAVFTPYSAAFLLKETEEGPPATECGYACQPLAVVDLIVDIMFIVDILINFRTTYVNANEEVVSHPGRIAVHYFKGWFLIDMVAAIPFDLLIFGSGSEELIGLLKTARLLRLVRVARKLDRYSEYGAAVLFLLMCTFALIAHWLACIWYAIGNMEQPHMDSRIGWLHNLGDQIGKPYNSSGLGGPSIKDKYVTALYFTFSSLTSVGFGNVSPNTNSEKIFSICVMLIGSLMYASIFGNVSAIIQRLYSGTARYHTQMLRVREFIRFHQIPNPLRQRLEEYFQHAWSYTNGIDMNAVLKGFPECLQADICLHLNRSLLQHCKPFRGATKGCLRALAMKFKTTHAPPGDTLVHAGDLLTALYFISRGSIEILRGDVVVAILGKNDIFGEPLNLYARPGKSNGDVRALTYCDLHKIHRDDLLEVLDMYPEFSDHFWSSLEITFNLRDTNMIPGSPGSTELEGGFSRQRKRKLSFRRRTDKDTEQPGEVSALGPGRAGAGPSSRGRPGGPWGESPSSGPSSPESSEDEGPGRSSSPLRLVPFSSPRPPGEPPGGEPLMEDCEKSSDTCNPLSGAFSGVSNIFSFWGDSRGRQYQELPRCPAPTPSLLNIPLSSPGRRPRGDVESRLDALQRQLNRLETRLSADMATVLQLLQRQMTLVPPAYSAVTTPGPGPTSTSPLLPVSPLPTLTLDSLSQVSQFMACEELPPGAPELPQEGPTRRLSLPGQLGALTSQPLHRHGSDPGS

Row | SMILES | hERG current change (%, negative = inhibition) at 10uM [%]
1 | Nc1c(C(=O)O)sc2nc(-c3ccccc3)cc(-c3ccc(F)cc3)c12 | 18.8
2 | O=C(NNC(=O)c1cc(-c2ccncc2)nc2ccccc12)c1ccccc1F | -22.3
3 | COC(=O)C1(Cc2ccccc2)NC(c2ccc(F)cc2)C2C(=O)N(C)C(=O)C21 (stereo not drawn) | -3.11
4 | CCCn1nnnc1SCC(=O)c1ccc2c(c1)OCCO2 | -16.6
5 | CCOc1ccc(N(CC(=O)Nc2ccc(C)cc2)S(=O)(=O)c2c(C)noc2C)cc1 | -1.76
6 | Cc1c(NC(=O)c2cc(C3CC3)on2)c(=O)n(-c2ccccc2)n1C | 3.21
7 | Cc1ccc(-c2nc(SC(C)C(=O)N3CCCC3)n[nH]2)cc1 (stereo not drawn) | 19.5
8 | CC(=O)N1CCOc2ccc(S(=O)(=O)N3CCC(C(=O)Nc4ccc(C)cc4)CC3)cc21 | -14.8
9 | O=C(Nc1ccc(S(=O)(=O)Nc2nccs2)cc1)c1cccc(S(=O)(=O)N2CCOCC2)c1 | 9.27
10 | O=C(Nc1ccc(-n2cnnn2)cc1)c1cn2ccccc2n1 | 16.6
11 | Cc1cc(NC(=O)CNC(=O)C2CCCCC2)no1 | 6.31
12 | CCOc1ccccc1C(=O)NCCCN1CCN(CCCNC(=O)c2ccccc2OCC)CC1 | -53.3
13 | COc1ccc(/C=N/NC(=O)c2[nH]ncc2Br)c(OC)c1 | -5.3
14 | Cc1ccc(NC2OC(CO)C(O)C(O)C2O)cc1 (stereo not drawn) | -18
15 | CCCC(C(=O)Nc1cccc(S(=O)(=O)N2CCCC2)c1)c1ccccc1 (stereo not drawn) | -48.2
16 | O=C(CSc1nc(O)cc(=O)[nH]1)N1CCCc2ccccc21 | 18.9
17 | Cn1cc(S(=O)(=O)Oc2ccccc2)c(=O)n(C)c1=O | 1.06
18 | O=C(Nc1ccn(Cc2ccccc2F)n1)c1ccc(COc2cccc(Br)c2)cc1 | 5.54
19 | CC(C)CCn1c(COc2ccccc2)n[nH]c1=S | 14.9
20 | O=C(COC(=O)C1C2CC3OC(=O)C1C3C2)Nc1ccc(Cl)cc1 (stereo not drawn) | -32.5
21 | CN(CC(=O)Nc1ccc(C#N)cc1)Cc1ccc(Cl)c(Cl)c1 | -60.8
22 | C/C(=N/NC(=O)Cc1cc(=O)[nH][nH]1)c1ccc([N+](=O)[O-])cc1 | -0.979
23 | CN(C)CCN(C(=O)c1ccc2ccccc2c1)c1nc2ccc(F)cc2s1.Cl | 11.1

Row | SMILES | hERG current change (%, negative = inhibition) at 10uM [%]
24 | COc1ccc(NC(=O)c2cc(C)cc(C)c2)cc1S(=O)(=O)N1CCCCC1 | -0.0501
25 | CCc1ccccc1NC1Nc2cc(C)nn2S1 (stereo not drawn) | 5.39
26 | COc1ccc(C(C#N)N2N=C(C)CC2(C)C)cc1OC (stereo not drawn) | 14.4
27 | O=C(NCCS(=O)(=O)NCc1ccccn1)c1ccccc1 | 8.92
28 | CCc1ccc(-c2cc(C(=O)N/N=C/c3ccccn3)[nH]n2)cc1 | -41.7
29 | CC1(C)CC(O)(CCNCc2ccc3c(c2)OCO3)CCO1 (stereo not drawn) | -4.43
30 | O=C(Nc1cccc([N+](=O)[O-])c1)c1cc2ccccc2cc1O | 11.1
31 | O=C(NCc1ccccc1)c1cccc(Br)n1 | 2.99
32 | O=c1ccc(Cl)nn1-c1ccccc1 | 10.3
33 | CCCCC1CCC(C(=O)Nc2ccccc2)CC1 (stereo not drawn) | 2.62
34 | Brc1ccc2c(c1)OCCOCCOCCOCCOCCO2 | -76.4
35 | O=C(NCCCN1CCOCC1)c1cccc(S(=O)(=O)N2CCN(c3ccccc3)CC2)c1 | -71.8
36 | CC1CCN(S(=O)(=O)c2nnc(NC(=O)c3cccc([N+](=O)[O-])c3)s2)CC1 | 16.4
37 | CCCNC(=O)c1cccc(COc2ccccc2OC)c1 | -5.92
38 | CCOc1ccc2oc(C(=O)NCc3ccccc3CN3CCCC3)c(C)c2c1 | -66.2
39 | Cc1cc(=O)oc2cc(OCC(=O)N3CCN(C(=O)c4ccco4)CC3)ccc12.Cl | -32.6
40 | COc1ccc(CCCc2nnc(SCC(=O)Nc3cc(C)ccc3C)o2)cc1 | 0.676
41 | CN(C)CCCN(C(=O)c1ccc(S(=O)(=O)N2CCCCCC2)cc1)c1nc2c(F)cccc2s1.Cl | -66.2
42 | CCOc1ccc(CCNC(=O)CCOc2cc(C)ccc2C)cc1OCC | -1.15
43 | CC(C(=O)Nc1ccc2c(c1)OCO2)N(c1ccc(Cl)cc1)S(C)(=O)=O (stereo not drawn) | -31.8
44 | COc1ccccc1Oc1nc(-c2ccccc2)cc(C)c1S(C)(=O)=O | -6.11
45 | Cc1ccc(C(CNC(=O)Nc2ccccc2)N2CCN(C)CC2)cc1 (stereo not drawn) | -28.9
